Experiment [1] relates to HSkMC (human skeletal muscle cells). In words: cytotoxicity call (relative viability < 0.9). The note with it: 10 µM.
Experiment [2] concerns HepG2. As to the kind of experiment: cytotoxicity call (relative viability < 0.9). Particulars: 10 µM.
Experiment [3] concerns S. aureus RN4220. In words: growth inhibition call (relative growth <= 0.2). The note with it: 50 µM.

Molecules are shown by their SMILES. This is one part of the list.

With `NCCc1c[nH]c2ccccc12`, the cytotoxicity call in experiment [1] and in experiment [2] was “inactive” in each case. In addition, the growth inhibition call in experiment [3] is “inactive”.
`CC1OC(OC2CCC3(C=O)C4CCC5(C)C(C6=CC(=O)OC6)CCC5(O)C4CCC3(O)C2)C(O)C(O)C1O` (configuration not stated): the cytotoxicity call in experiment [1] and in experiment [2] was “active” throughout. Besides, the growth inhibition call in experiment [3] is “inactive”.
In the case of `C1CCN2C(C3N4CCCCN34)N2C1` (configuration not stated), the cytotoxicity call in experiment [1] and in experiment [2] was “inactive” throughout. Also, the growth inhibition call in experiment [3] is “inactive”.
Turning to `C#CCO[C@H]1CN2CCC1CC2`, the cytotoxicity call in experiment [1] and in experiment [2] was “inactive” each time. Moreover, the growth inhibition call in experiment [3] was “inactive”.
In the case of `O=c1cccc2n1C[C@H]1CNC[C@H]2C1`, the cytotoxicity call in experiment [1] and in experiment [2] was “inactive” throughout. Also, the growth inhibition call in experiment [3] was “inactive”.
For the molecule `CCC1C2CC3C4N(C)c5ccccc5C45CC(C2C5O)N3C1O` (configuration not stated), the cytotoxicity call in experiment [1] and in experiment [2] was “inactive” in each case. The growth inhibition call in experiment [3] is “inactive”.
Turning to `Cc1ccc2cc3c(ccc4ccccc43)c3c2c1CC3`, the cytotoxicity call in experiment [1] is “inactive”. Also, the cytotoxicity call in experiment [2] was “active”. The growth inhibition call in experiment [3] was “inactive”.
With `COC(=O)C1=COC(C)C2CN3CCC4(C(=O)Nc5ccccc54)C3CC12` (configuration not stated), the cytotoxicity call in experiment [1] and in experiment [2] was “inactive” throughout. For the same molecule, the growth inhibition call in experiment [3] was “inactive”.
With `Clc1nc(N2CCNCC2)c2[nH]cnc2n1`, the cytotoxicity call in experiment [1] and in experiment [2] was “inactive” in each case. Also, the growth inhibition call in experiment [3] was “inactive”.
As for `COc1cc2c(cc1OC)C13CCN4CC5=CCOC6CC(=O)N2C1C6C5CC43` (configuration not stated), the cytotoxicity call in experiment [1] and in experiment [2] was “inactive” each time. In addition, the growth inhibition call in experiment [3] was “inactive”.
Consider `COc1ccc(C(CN(C)C)C2(O)CCCCC2)cc1.Cl` (configuration not stated), for which the cytotoxicity call in experiment [1] and in experiment [2] was “inactive” in each case. For the same molecule, the growth inhibition call in experiment [3] was “inactive”.
Consider `N[C@@H](Cn1oc(=O)[nH]c1=O)C(=O)O`, for which the cytotoxicity call in experiment [1] and in experiment [2] was “inactive” each time. Further, the growth inhibition call in experiment [3] is “inactive”.
In the case of `COC(=O)C1=CCCN(C)C1`, the cytotoxicity call in experiment [1] and in experiment [2] was “inactive” each time. In addition, the growth inhibition call in experiment [3] is “inactive”.
In the case of `NC(=O)C12CC(CN1)C2`, the cytotoxicity call in experiment [1] and in experiment [2] was “inactive” each time. Besides, in experiment [3], the growth inhibition call was “inactive”.
As for `CNC[C@@H](O)c1ccc(O)c(OC)c1`, the cytotoxicity call in experiment [1] and in experiment [2] was “inactive” in each case. Further, in experiment [3], the growth inhibition call was “inactive”.
As to `COc1ccc(O)c(C(C)(C)C)c1`, the cytotoxicity call in experiment [1] and in experiment [2] was “inactive” throughout. For the same molecule, the growth inhibition call in experiment [3] was “inactive”.
For `C1CC2(CCN1)OCCO2`, the cytotoxicity call in experiment [1] and in experiment [2] was “inactive” in each case. In addition, the growth inhibition call in experiment [3] was “inactive”.
As to `Cn1cc([C@@H](O)c2ccccc2)[n+](C)c1`, the cytotoxicity call in experiment [1] and in experiment [2] was “inactive” in each case. In addition, the growth inhibition call in experiment [3] is “inactive”.
Consider `O=C1CC[C@@H]2NCC[C@H]2N1`, for which the cytotoxicity call in experiment [1] and in experiment [2] was “inactive” in each case. Moreover, the growth inhibition call in experiment [3] is “inactive”.
As for `O[C@H]1[C@H](O)[C@@H](O)CO[C@H]1NCCc1ccccc1`, the cytotoxicity call in experiment [1] and in experiment [2] was “inactive” throughout. Also, the growth inhibition call in experiment [3] was “inactive”.
Take `COc1cccc(C=O)c1OC`: the cytotoxicity call in experiment [1] and in experiment [2] was “inactive” throughout. Moreover, in experiment [3], the growth inhibition call is “inactive”.
As for `O=C(O)CC[C@@H](CP(=O)(O)O)C(=O)O`, the cytotoxicity call in experiment [1] and in experiment [2] was “inactive” each time. In addition, in experiment [3], the growth inhibition call is “inactive”.
Regarding `O=[N+]([O-])c1cc([As](=O)(O)O)ccc1O`, the cytotoxicity call in experiment [1] and in experiment [2] was “inactive” throughout. Also, in experiment [3], the growth inhibition call is “inactive”.
As for `COP(=S)(OC)Oc1cc(Cl)c(Cl)cc1Cl`, the cytotoxicity call in experiment [1] and in experiment [2] was “inactive” each time. In addition, the growth inhibition call in experiment [3] is “active”.
For the molecule `COc1cc2c3cc1Oc1c(OC)c(OC)cc4c1C(Cc1cccc(c1)Oc1ccc(c(O)c1)CC3N(C)CC2)N(C)CC4.Cl.Cl` (configuration not stated), the cytotoxicity call in experiment [1] was “inactive”. In addition, in experiment [2], the cytotoxicity call is “active”. For the same molecule, the growth inhibition call in experiment [3] is “inactive”.
Turning to `CCCCCCCCCCCCCCCC[n+]1ccccc1.[Cl-]`, the cytotoxicity call in experiment [1] and in experiment [2] was “active” throughout. Besides, the growth inhibition call in experiment [3] was “inactive”.
Turning to `C=CCN1C(=O)NC(=O)/C(=C/c2ccco2)C1=O`, the cytotoxicity call in experiment [1] is “active”. The cytotoxicity call in experiment [2] was “inactive”. The growth inhibition call in experiment [3] was “inactive”.
Turning to `COC(=O)[C@H]1[C@H](CO)[C@H]2Cn3c(cccc3=O)[C@@H]1N2C(=O)C1CC1`, the cytotoxicity call in experiment [1] and in experiment [2] was “inactive” in each case. Moreover, the growth inhibition call in experiment [3] was “inactive”.
For `C=C1[C@@H](C)[C@H]2[C@H](Cc3ccccc3)NC(=O)[C@]23[C@H](OC(C)=O)/C=C/[C@](C)(O)C(=O)[C@@H](C)C/C=C/[C@H]3[C@@H]1O`, the cytotoxicity call in experiment [1] and in experiment [2] was “active” each time. Besides, the growth inhibition call in experiment [3] was “inactive”.
Consider `CC1CC(C)C(=O)C(C(O)CC2CC(=O)NC(=O)C2)C1` (configuration not stated), for which the cytotoxicity call in experiment [1] was “inactive”. In experiment [2], the cytotoxicity call is “active”. Also, in experiment [3], the growth inhibition call is “inactive”.
With `O=P1(NCCCl)OCCCN1CCCl` (configuration not stated), the cytotoxicity call in experiment [1] and in experiment [2] was “inactive” each time. For the same molecule, the growth inhibition call in experiment [3] was “inactive”.
In the case of `c1ccc(-c2ccncc2)cc1`, the cytotoxicity call in experiment [1] and in experiment [2] was “inactive” each time. In experiment [3], the growth inhibition call was “inactive”.
For the molecule `C[C@]12CC/C(=N\OCCN)C[C@@H]1C(=O)C[C@@H]1[C@@H]2CC[C@]2(C)C(=O)CC[C@@H]12`, in experiment [1], the cytotoxicity call was “active”. In addition, in experiment [2], the cytotoxicity call is “inactive”. The growth inhibition call in experiment [3] is “inactive”.
For the molecule `CCn1nc(-c2cccnc2)nc2c(=O)n(C)c(=O)nc1-2`, the cytotoxicity call in experiment [1] and in experiment [2] was “active” in each case. Besides, in experiment [3], the growth inhibition call was “active”.

The values are drawn from the antibiotic and cytotoxicity screens of Wong et al. (2023).
